Data on 63 cell lines can be found in the supplement of paper PMC4967469.

Compound in this assay: CCc1nc(-c2cccc(C)c2)c(-c2ccnc(NC(=O)c3ccccc3)c2)s1 [TAK-715]
In words: Viability of human cancer cell lines after 72 h of drug (GDSC screen). Particulars: top dose inferred. The procedure: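 Human cancer cell lines in 384-well plates, medium with 10% serum, drug for 72 h over a 256-fold dose range (nine 2-fold or five 4-fold steps up to the top dose). Adherent lines were fixed and stained with the nucleic acid dye Syto60, suspension lines read with resazurin; signal relative to control wells, capped at 0 and 100%. One two-parameter sigmoid per drug and line, fitted in a mixed model over all curves with the slope shared within a line.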

pIC50: −log10 of the molar value. By IC50 is meant the dose at which the fit gives 50% viability; a limit (>, <) means that the fit lies beyond the doses tested. AUC, from the same fit, is the share of area under the viability curve across the 256-fold dose range; the more sensitive the line, the further below 1. Where the top dose is marked as inferred, it was calculated from the reported fits.

As to “NCI-H1781 (lung adenocarcinoma, adherent, top dose 20 µM)”, the AUC came to 0.989 and the pIC50 (usually the IC50 on a negative log10 scale, so that one unit is a factor of ten) was under 4.70.

For the cell line “NCI-H1792 (lung adenocarcinoma, adherent, top dose 20 µM)”, the AUC was found to be 0.968 and the negative logarithm of the IC50 (pIC50) is under 4.70.

Take “NCI-H1793 (lung adenocarcinoma, adherent, top dose 20 µM)”: the AUC was found to be 0.962 and the pIC50 is under 4.70.

For the cell line “NCI-H1836 (small cell lung carcinoma, suspension, top dose 20 µM)”, the AUC is 0.95 and the pIC50 was under 4.70.

As to “NCI-H1838 (lung adenocarcinoma, adherent, top dose 20 µM)”, the AUC was determined as 0.984 and the pIC50 is under 4.70.

On to “NCI-H1869 (lung squamous cell carcinoma, adherent, top dose 20 µM)”, for which the AUC worked out at 0.927 and the negative logarithm of the IC50 (pIC50) was under 4.70.

As to “NCI-H1876 (small cell lung carcinoma, adherent, top dose 20 µM)”, the AUC amounted to 0.965 and the negative logarithm of the IC50 (pIC50) is under 4.70.

As to “NCI-H1915 (large cell lung carcinoma, adherent, top dose 20 µM)”, the AUC was found to be 0.981 and the negative logarithm of the IC50 (pIC50) is under 4.70.

For “NCI-H1944 (lung adenocarcinoma, adherent, top dose 20 µM)”, the AUC came to 0.838 and the negative-log IC50 (pIC50) is 4.83.

With “NCI-H1975 (lung adenocarcinoma, adherent, top dose 20 µM)”, the AUC stood at 0.934 and the pIC50 was under 4.70.

Regarding “NCI-H1993 (lung adenocarcinoma, adherent, top dose 20 µM)”, the AUC came out at 0.949 and the negative logarithm of the IC50 (pIC50) was under 4.70.

For “NCI-H2009 (lung adenocarcinoma, adherent, top dose 20 µM)”, the AUC was determined as 0.981 and the negative logarithm of the IC50 (pIC50) was under 4.70.

Regarding “NCI-H2023 (lung adenocarcinoma, adherent, top dose 20 µM)”, the AUC came out at 0.956 and the negative-log IC50 (pIC50) is under 4.70.

Take “NCI-H2029 (small cell lung carcinoma, adherent, top dose 20 µM)”: the AUC stood at 0.931 and the negative logarithm of the IC50 (pIC50) was under 4.70.

Take “NCI-H2030 (lung adenocarcinoma, adherent, top dose 20 µM)”: the AUC was determined as 0.942 and the pIC50 is under 4.70.

Regarding “NCI-H2052 (mesothelioma, adherent, top dose 20 µM)”, the AUC was 0.975 and the pIC50 is under 4.70.

In the case of “NCI-H2081 (small cell lung carcinoma, suspension, top dose 20 µM)”, the AUC worked out at 0.924 and the pIC50 is under 4.70.

“NCI-H2085 (lung adenocarcinoma, adherent, top dose 20 µM)”: the AUC was 0.885 and the negative logarithm of the IC50 (pIC50) is under 4.70.

In the case of “NCI-H2087 (lung adenocarcinoma, semi-adherent, top dose 20 µM)”, the AUC is 0.567 and the pIC50 was 5.71.

Regarding “NCI-H2110 (non-small cell lung carcinoma, adherent, top dose 20 µM)”, the AUC was found to be 0.978 and the negative-log IC50 (pIC50) was under 4.70.

Take “NCI-H2122 (lung adenocarcinoma, adherent, top dose 20 µM)”: the AUC turned out to be 0.983 and the negative-log IC50 (pIC50) is under 4.70.

Consider “NCI-H2135 (non-small cell lung carcinoma, adherent, top dose 20 µM)”, for which the AUC amounted to 0.929 and the pIC50 is under 4.70.

Take “NCI-H2141 (small cell lung carcinoma, suspension, top dose 20 µM)”: the AUC was 0.969 and the negative-log IC50 (pIC50) was under 4.70.

With “NCI-H2170 (lung squamous cell carcinoma, adherent, top dose 20 µM)”, the AUC amounted to 0.972 and the negative-log IC50 (pIC50) was under 4.70.

Regarding “NCI-H2171 (small cell lung carcinoma, suspension, top dose 20 µM)”, the AUC stood at 0.964 and the negative logarithm of the IC50 (pIC50) was under 4.70.

As to “NCI-H2172 (non-small cell lung carcinoma, adherent, top dose 20 µM)”, the AUC was 0.97 and the pIC50 was under 4.70.

As for “NCI-H2196 (small cell lung carcinoma, adherent, top dose 20 µM)”, the AUC is 0.964 and the pIC50 is under 4.70.

As for “NCI-H2227 (small cell lung carcinoma, semi-adherent, top dose 20 µM)”, the AUC is 0.986 and the pIC50 is under 4.70.

With “NCI-H2228 (lung adenocarcinoma, adherent, top dose 20 µM)”, the AUC amounted to 0.946 and the pIC50 is under 4.70.

Regarding “NCI-H2291 (lung adenocarcinoma, adherent, top dose 20 µM)”, the AUC was 0.98 and the negative-log IC50 (pIC50) is under 4.70.

Take “NCI-H2342 (lung adenocarcinoma, adherent, top dose 20 µM)”: the AUC amounted to 0.935 and the pIC50 was under 4.70.

On to “NCI-H2347 (lung adenocarcinoma, adherent, top dose 20 µM)”, for which the AUC stood at 0.983 and the pIC50 was under 4.70.

Consider “NCI-H2405 (lung adenocarcinoma, adherent, top dose 20 µM)”, for which the AUC was 0.942 and the pIC50 was under 4.70.

With “NCI-H2444 (non-small cell lung carcinoma, adherent, top dose 20 µM)”, the AUC is 0.98 and the pIC50 was under 4.70.

Turning to “NCI-H2452 (mesothelioma, adherent, top dose 20 µM)”, the AUC amounted to 0.979 and the pIC50 was under 4.70.

Regarding “NCI-H3122 (lung adenocarcinoma, adherent, top dose 20 µM)”, the AUC was 0.907 and the negative-log IC50 (pIC50) is under 4.70.

As to “NCI-SNU-1 (stomach, suspension, top dose 20 µM)”, the AUC amounted to 0.784 and the pIC50 was 5.06.

Regarding “NCI-SNU-5 (stomach, suspension, top dose 20 µM)”, the AUC amounted to 0.975 and the negative logarithm of the IC50 (pIC50) was under 4.70.

Consider “NCI-SNU-16 (stomach, suspension, top dose 20 µM)”, for which the AUC worked out at 0.966 and the negative-log IC50 (pIC50) is under 4.70.

As for NEC8 (testis, adherent, top dose 20 µM), the AUC stood at 0.938 and the negative logarithm of the IC50 (pIC50) is under 4.70.

Take “NH-12 (neuroblastoma, adherent, top dose 20 µM)”: the AUC was found to be 0.871 and the pIC50 was under 4.70.

In the case of “NK-92MI (lymphoid neoplasm, suspension, top dose 20 µM)”, the AUC amounted to 0.824 and the negative logarithm of the IC50 (pIC50) is 4.97.

As to “NKM-1 (acute myeloid leukaemia, suspension, top dose 20 µM)”, the AUC is 0.892 and the pIC50 is under 4.70.

“NMC-G1 (glioma, adherent, top dose 20 µM)”: the AUC came out at 0.945 and the pIC50 was under 4.70.

“NOMO-1 (acute myeloid leukaemia, suspension, top dose 20 µM)”: the AUC is 0.942 and the negative logarithm of the IC50 (pIC50) is under 4.70.

As to “NOS-1 (osteosarcoma, adherent, top dose 20 µM)”, the AUC turned out to be 0.783 and the negative logarithm of the IC50 (pIC50) is 4.97.

For “NTERA-2 cl.D1 (testis, adherent, top dose 20 µM)”, the AUC worked out at 0.959 and the negative logarithm of the IC50 (pIC50) was under 4.70.

In the case of “NU-DUL-1 (B-cell lymphoma, suspension, top dose 20 µM)”, the AUC stood at 0.885 and the pIC50 was 4.84.

Regarding “NUGC-3 (stomach, adherent, top dose 20 µM)”, the AUC was 0.939 and the pIC50 was under 4.70.

“NUGC-4 (stomach, adherent, top dose 20 µM)”: the AUC turned out to be 0.942 and the pIC50 was under 4.70.

For the cell line “NY (osteosarcoma, adherent, top dose 20 µM)”, the AUC was 0.972 and the negative logarithm of the IC50 (pIC50) is under 4.70.

For the cell line “OACM5-1 (oesophagus, semi-adherent, top dose 20 µM)”, the AUC amounted to 0.827 and the negative-log IC50 (pIC50) was 4.84.

For the cell line “OACp4C (oesophagus, adherent, top dose 20 µM)”, the AUC worked out at 0.814 and the pIC50 is 4.86.

On to “OAW-28 (ovary, adherent, top dose 20 µM)”, for which the AUC stood at 0.91 and the negative logarithm of the IC50 (pIC50) was under 4.70.

With “OAW-42 (ovary, adherent, top dose 20 µM)”, the AUC is 0.924 and the pIC50 is under 4.70.

On to “OC-314 (ovary, adherent, top dose 20 µM)”, for which the AUC was determined as 0.943 and the negative logarithm of the IC50 (pIC50) is under 4.70.

As for “OCI-AML2 (acute myeloid leukaemia, suspension, top dose 20 µM)”, the AUC amounted to 0.952 and the pIC50 was under 4.70.

As for “OCI-AML3 (acute myeloid leukaemia, suspension, top dose 20 µM)”, the AUC worked out at 0.954 and the negative logarithm of the IC50 (pIC50) was under 4.70.

With “OCI-AML5 (acute myeloid leukaemia, suspension, top dose 20 µM)”, the AUC came out at 0.845 and the negative-log IC50 (pIC50) is 4.90.

Take “OCI-LY-19 (B-cell lymphoma, suspension, top dose 20 µM)”: the AUC is 0.887 and the negative-log IC50 (pIC50) is 4.71.

“OCI-M1 (acute myeloid leukaemia, suspension, top dose 20 µM)”: the AUC stood at 0.859 and the negative-log IC50 (pIC50) was 4.97.

For the cell line “OCUB-M (breast, adherent, top dose 20 µM)”, the AUC was found to be 0.858 and the pIC50 is 4.89.

In the case of “OCUM-1 (stomach, adherent, top dose 20 µM)”, the AUC is 0.966 and the pIC50 is under 4.70.
